Experimental data taken from PubChem BioAssay AID757 (NMMLSC, 2007).
The whole screen tested about 190,000 compounds, of which about 520 (0.27%) were called active. Inconclusive results, whose numbers are uncertain, are shown with a selection of clear calls.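 How the source made its calls: active means GTP binding activity at least 20 points away from the 100% control level, either lower or higher; inconclusive means compound flagged as likely green fluorescent, judged across all proteins; inactive means the rest.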

These molecules were tested against Ras-related C3 botulinum toxin substrate 1 (Homo sapiens) (UniProt P63000) (assay: compounds altering fluorescent GTP loading on wildtype Rac1 – biochemical, GST-Rac1 beads, flow cytometry, multiplex, primary screen (AID 757)). Conditions: at 10 µM, actives lie on both sides.

SMILES	GTP binding activity (% of control)
CCOc1ccc(N2C(=O)/C(=C\c3cccs3)C(=O)NC2=S)cc1	inconclusive: 91%
O=C(C1CC(=O)N(C2CCCC2)C1)N1CCC2(CC1)OCCO2 (configuration not stated)	inconclusive: 101%
CC(C)Sc1nnc([C@@H](N)Cc2c[nH]c3ccccc23)o1	inconclusive: 95%
CCCCn1c(O)c(C=NCCN2CCCCC2)c(=O)[nH]c1=O	inactive: 102%
Nc1ccc(C2(c3ccc(N)cc3)CN3CCC2CC3)cc1	inconclusive: 104%
CCC1(c2ccccc2)C(=O)N(C)C(=O)N(C)C1=O	inconclusive: 93%
O=C(CSc1ccccc1)N1CCC2(CC1)OCCO2	inconclusive: 106%
O=C1CN=C(c2ccccc2)c2cc(Br)ccc2N1Cc1cc(=O)n2ccccc2n1	inconclusive: 162%
O=C(CSC1c2ccccc2-c2ccccc21)N/N=C/c1ccccc1O	inactive: 103%
COCCCn1c(N)c(C(=O)Nc2sc3c(c2C(=O)OC)CCCC3)c2nc3ccccc3nc21	inactive: 84%
COCCCN=Cc1c(O)[nH]c(=S)[nH]c1=O	inactive: 101%
NS(=O)(=O)c1cccc(N2CCNCC2)c1	inconclusive: 98%
Cc1cc(C)cc(N2C(=O)NC(=O)/C(=C\C=C\c3ccco3)C2=O)c1	active: 78%
COc1ccc(CC(=O)N2CCN(C)CC2)cc1OC	inconclusive: 109%
O=C(c1ccc(N2CC3CC(C2)c2cccc(=O)n2C3)c([N+](=O)[O-])c1)N1CCCCC1 (configuration not stated)	inactive: 101%
CSCCC(N=Cc1c(O)n(-c2ccc(Br)cc2)c(=O)[nH]c1=O)C(=O)OC(C)(C)C (configuration not stated)	inconclusive: 92%
c1ccc2c3c(ccc2c1)OCC1CONC31 (configuration not stated)	inactive: 104% [0 = cold GTP competed, 100 = untreated]
CN1CCN(C(=O)COc2ccc(Oc3ccccc3)cc2)CC1	inconclusive: 101%
COc1cc(OC)cc(C(=O)Nc2ccc(Br)cc2C(=O)c2ccccc2)c1	inconclusive: 100%
Cc1cc(C)c(NC2=NCCCS2)c(C)c1	inconclusive: 104%
CCOCCCn1c(N)c(C(=O)Nc2sc3c(c2C(=O)OC)CCCC3)c2nc3ccccc3nc21	inactive: 82%

SMILES	GTP binding activity (% of control)
COC(=O)c1cncn1C(C)c1ccccc1 (configuration not stated)	inconclusive: 103%
CN(CCc1nnc(N)s1)[N+](=O)[O-]	inactive: 105%
CCC(=NCc1ccc2c(c1)OCO2)c1c(O)n(C)c(=O)n(C)c1=O	inconclusive: 95%
CN1C2CCC1CC(=NO)C2	inactive: 101%
CCN(CC)c1ccc(N=Cc2c(O)n(Cc3ccccc3)c(=O)[nH]c2=O)cc1	inconclusive: 104%
Cc1ccc(C2SCC(=O)Nc3c2c(=O)[nH]n3C2CCOC(C)(C)C2)cc1 (configuration not stated)	inactive: 102%
CC(C)OP(=O)(OC(C)C)C(O)c1ccc(Br)cc1 (configuration not stated)	inconclusive: 106%
COc1cc2[nH]c(=O)n(-c3ccc(C)cc3)c(=O)c2cc1OC	inactive: 102%
CCOC(=O)c1c(/N=C/C2C(=O)NC(=S)NC2=O)sc2c1CCC2	inconclusive: 91%
OC(C#CCN1CCOCC1)(c1ccccc1)C1CCCC1 (configuration not stated)	inconclusive: 108%
N=C1c2ccccc2CN1NC(=O)c1ccc(F)cc1	inconclusive: 104%
CCn1c(O)c(C=Nc2ccc(S(N)(=O)=O)cc2)c(=O)n(CC)c1=S	inconclusive: 104%
CNC(C(=O)c1ccccc1)C(OC(C)C)c1ccc(Cl)cc1 (configuration not stated)	inactive: 106%
N#CC1=C(N)Oc2c(c(=O)sc3ccccc23)C1c1cccnc1 (configuration not stated)	inactive: 89%
COc1ccc(C2NCCc3[nH]cnc32)cc1 (configuration not stated)	inactive: 103%
Cc1c(N=Nc2c(O)[nH]c(=S)[nH]c2=O)c(=O)n(-c2ccccc2)n1C	inactive: 105%
c1ccc(-c2[nH]c[n+](CC3CO3)c2-c2ccccc2)cc1 (configuration not stated)	inconclusive: 112% [0 = cold GTP competed, 100 = untreated]
O=C(c1ccc(N2CC3CC(C2)c2cccc(=O)n2C3)c([N+](=O)[O-])c1)N1CCCC1 (configuration not stated)	inactive: 100%
CCCCn1c(O)c(C(C)=NCc2ccc(F)cc2)c(=O)[nH]c1=O	inconclusive: 105%
Cc1cc(C)cc(N2C(=O)NC(=O)/C(=C\c3cc(C)n(C)c3C)C2=O)c1	inconclusive: 94%
O=C1NC(=O)C(C/C=C/c2ccccc2)C(=O)N1	inconclusive: 110%
